Target: T1, Glucose-regulated protein 94 (GRP94), endogenous (human, UniProt P14625)
T1 construct: also called gp96; HSP90B1
Experiment: co-IP (IP: V5, IB: GRP94) from transfected HEK293 cells, with GRP94 siRNA as specificity control

- binding result: binds
B1: PCSK[…]Y-V5 (enzyme, not shown: small tags and cut ends)
chain: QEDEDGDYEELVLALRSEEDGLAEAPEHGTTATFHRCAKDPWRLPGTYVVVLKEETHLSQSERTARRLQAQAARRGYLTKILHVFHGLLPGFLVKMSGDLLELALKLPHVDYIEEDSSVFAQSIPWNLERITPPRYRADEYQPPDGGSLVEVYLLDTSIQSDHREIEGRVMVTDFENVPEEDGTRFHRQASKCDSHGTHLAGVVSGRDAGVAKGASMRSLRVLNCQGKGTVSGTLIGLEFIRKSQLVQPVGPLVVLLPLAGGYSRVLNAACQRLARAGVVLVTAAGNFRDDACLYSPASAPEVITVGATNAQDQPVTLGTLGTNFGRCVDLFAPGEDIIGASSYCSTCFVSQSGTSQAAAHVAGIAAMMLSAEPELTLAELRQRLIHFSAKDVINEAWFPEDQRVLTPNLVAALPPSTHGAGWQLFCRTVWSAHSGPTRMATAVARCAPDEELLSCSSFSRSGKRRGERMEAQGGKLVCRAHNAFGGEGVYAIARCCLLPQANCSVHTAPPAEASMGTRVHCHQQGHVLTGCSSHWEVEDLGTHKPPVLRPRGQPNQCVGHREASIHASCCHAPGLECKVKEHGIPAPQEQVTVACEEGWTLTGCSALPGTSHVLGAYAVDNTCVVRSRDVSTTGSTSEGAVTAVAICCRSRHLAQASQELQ
notes: Expressed in transfected HEK293 cells; also called PCSK[…]Y mutant
